Reference: the supplement of paper PMC3334620
The full ranking holds about 33,000 sequences; the median of “E-score (-0.5 to 0.5)” is about -0.016, and the highest 2% start at about 0.32. The list shows a part of the results.

Target: T1, Stp1 (UniProt B3LFK1)
T1 sequence: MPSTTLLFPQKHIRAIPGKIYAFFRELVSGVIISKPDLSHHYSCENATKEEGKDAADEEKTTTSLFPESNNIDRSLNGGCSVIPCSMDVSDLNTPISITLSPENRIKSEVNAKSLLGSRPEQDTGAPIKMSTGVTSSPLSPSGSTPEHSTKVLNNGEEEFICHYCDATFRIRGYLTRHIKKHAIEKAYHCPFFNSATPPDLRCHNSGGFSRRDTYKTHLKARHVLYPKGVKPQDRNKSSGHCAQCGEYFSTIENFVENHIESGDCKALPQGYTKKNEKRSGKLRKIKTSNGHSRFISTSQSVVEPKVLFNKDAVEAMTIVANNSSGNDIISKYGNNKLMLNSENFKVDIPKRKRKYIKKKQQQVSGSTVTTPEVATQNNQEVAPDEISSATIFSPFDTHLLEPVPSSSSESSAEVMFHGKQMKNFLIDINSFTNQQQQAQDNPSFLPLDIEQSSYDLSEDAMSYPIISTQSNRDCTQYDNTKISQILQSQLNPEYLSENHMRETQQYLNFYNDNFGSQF
Experiment: PBM E-score (8-mer binding enrichment) (E-score (-0.5 to 0.5)); higher = stronger / more preferred TF binding; most listed sequences are background and not binding sites
Settings: protein concentration: 200 nM; construct: GST-full length
Method: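 Universal 'all 10-mer' protein binding microarrays (Agilent AMADID 015681) probed with GST-tagged S. cerevisiae TFs (full-length or DBD) made by in vitro transcription/translation (PURExpress), about 100-200 nM. Bound TF was detected with fluorescent anti-GST. Each ungapped 8-mer (which stands for itself and its reverse complement) is scored by the PBM enrichment score (E-score), a modified Wilcoxon-Mann-Whitney statistic from -0.5 to +0.5, computed with the Universal PBM Analysis Suite. Scale: above 0.35 generally sequence-specific binding.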

Sequence	PBM E-score
CGTGGTAA	-0.0899
CCACCTGG	-0.213
ATTTGTGC	0.148
CAGATACC	-0.0896
AGCCGATC	-0.0437
CCTATCAG	-0.162
ATCAACGG	0.195
AGTCAGAC	-0.0504
GAAAATGC	0.0445
ACTGGTTG	0.132
GCAATGCA	0.0407
AGAGCCTG	-0.105
CAGACTGC	-0.123
GTGAATGA	0.0753
ACTTTGGG	-0.149
AAGGTACG	0.052
ATACTTGA	-0.0722
AGAGATAG	0.0605
GCCGGGCA	-0.0462
AGACCGCG	0.063
ACTCGTAG	-0.135
TCTAAGAA	0.176

Sequence	PBM E-score
ACAATTAC	0.0526
GCCAGCGC	-0.0384
AACCCCTA	-0.218
GAGGGCAC	-0.0254
CCATTACA	0.193
CGGAGCCA	-0.135
ATTATAAG	0.0354
GCTTAGGA	-0.228
ACGGCAAA	0.45
AGCCCCCC	-0.372
CAATATCG	0.0367
ACCCTTTA	0.0773
GCATCTTA	0.121
CTAACTGC	-0.0941
CGCAGAGC	0.0296
ATGCCCCC	-0.178
AACCCCCC	-0.409
AAAAGCGA	0.108
GTCCTTGA	-0.0108
ATCCCGCA	0.0372
CCTATGCG	0.0842
AACCGTCG	-0.0847

Sequence	PBM E-score
CATCGTGC	0.252
CTCCGTGA	-0.177
ACCTACAG	0.148
CCGAAAAC	-0.0451
AAGACTGA	-0.066
GAGACTAC	-0.355
ACATACAG	0.0258
AATGGTAG	0.0944
GACCACAA	-0.0827
GTCGCTGA	-0.0302
CCAATTAC	0.0501
CATCAAGG	-0.267
GTACTAAC	0.0799
AGCGATGG	-0.0868
AAATGCTG	-0.0665
AATTAAGC	0.169
CCTGAGTA	-0.0425
CTTGGTGA	0.0947
GAATAAGA	-0.0341
CTCAGTAA	-0.0393
CTGGCCGC	-0.0616
AAATTATA	0.193

Sequence	PBM E-score
CATCTGGC	-0.0649
ATAAACTG	0.101
CATAGCCC	-0.26
TAGAATAA	0.144
CCGGAAGG	0.0415
ACGTTGAG	-0.0343
AAGCCAAA	0.0105
AACTATGC	0.15
CTTTAACC	0.0066
CACAGGCC	-0.219
GGGCACAC	-0.098
CTGGAATC	-0.00516
TCATTGAA	-0.0353
GAGCGGGA	0.00431
CATTTCGA	0.166
GGCCAATA	0.0967
ACATCATC	0.0243
CTGGGTGC	-0.25
AAACTATC	0.00931
ATAAGCAC	0.189
